In PubChem BioAssay AID686971 (National Center for Advancing Translational Sciences (NCATS), 2013):
Among all 360,000 compounds or so, about 7,500 (2.1%) were called active. Inconclusive means that the source gave no clear call. Such entries were picked first, then a sample of the others. The call rests on the fitted dose curve; in most records, active means well fitted cell-killing curve with a large enough effect; inconclusive means small, poorly fitted or top-dose-only effect, or effect the other way, or another doubt; inactive means no such curve, though single readings can be large or run the other way. No potency is given beside an inconclusive call; the fits are too rough.

Test: qHTS for induction of synthetic lethality in tumor cells producing 2HG: qHTS for the HT-1080-IDH1KD cell line;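 on activity, negative = toxicity: 0% = DMSO wells and -100% = cell-free medium wells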
Conditions: HT-1080 IDH1 knockdown viability, ATP luminescence, 48 h; activity, negative = toxicity: at 46.1 µM (top of the series) unless noted
Outline: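 Knockdown cells (IDH1KD HT-1080) received compounds 2 h after plating at 750 cells/well and were kept 48 h at 37 °C in 5% FBS RPMI. A CellTiter-Glo luminescence read gave % activity for curve fitting.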
Potency means the concentration at half of the fitted maximal effect; tags describe the fitted curve by direction and shape.

Q: Which Potency does the source give for Cc1c(C(=O)Nc2ccc(S(=O)(=O)N(C)C3CCN(C)CC3)cc2)oc2c(Cl)cccc12 here?
A: The Potency was inconclusive [cytotoxic, single point].

Q: With O=C(N/N=C/c1ccc(Cl)cc1Cl)c1n[nH]c2c1CCCC2 as the compound, how does the Potency read?
A: The Potency was active: 6.51 µM.

Q: For Cc1ccc(C)c(S(=O)(=O)ON2C(=O)c3ccccc3C2=O)c1, which Potency is on record?
A: The Potency was active: 13 µM.

Q: For COc1ccc(C(CC(=O)NC(C)(C)C)n2cccc2)cc1 (stereo unspecified), which Potency is on record?
A: Its Potency is inconclusive [rising, single point].

Q: With Cc1ccc(-c2c[n+](CC(=O)Nc3nc(-c4ccccc4)cs3)c3n2CCC3)cc1 as the compound, how does the Potency read?
A: Its Potency is active: 23.1 µM.

Q: With COc1ccc(-c2ccc([C@H]3[C@H]4C=CC[C@@H](C)[C@@H]4C(=O)N3Cc3ccccc3)c(F)c2)cc1OC as the compound, how does the Potency read?
A: Its Potency is inconclusive [cytotoxic, single point].

Q: With O=c1c2cc(Br)ccc2nc(-c2cccc(C(F)(F)F)c2)n1O as the compound, how does the Potency read?
A: The Potency was inconclusive [cytotoxic, single point].

Q: With O=C(NN=Cc1cc([N+](=O)[O-])ccc1O)c1cccc2ccccc12 as the compound, how does the Potency read?
A: Its Potency is active: 6.51 µM.

Q: With Cc1nc(C(F)(F)F)c(C(=O)O)cc1-c1nc(-c2ccccc2)cs1 as the compound, how does the “activity, negative = toxicity” value read?
A: The value was inactive: 0%.

Q: Which activity, negative = toxicity does the source give for Cc1c(C(=O)N2CCC2(C)C(=O)O)oc2ccccc12 (stereo unspecified) here?
A: The activity, negative = toxicity was inconclusive: 30.1%.

Q: Which Potency does the source give for COc1ccc(OC)c(C2=Nn3c(nnc3-c3cc(OC)c(OC)c(OC)c3)SC2)c1 here?
A: Its Potency is inconclusive [cytotoxic, single point].

Q: For COc1ccc(N/C=C/C(=O)c2sc(-c3ccccc3)nc2C)cc1, which Potency is on record?
A: The Potency was inconclusive [cytotoxic, single point].

Q: Which “activity, negative = toxicity” value does the source give for S=C(NCc1ccco1)Nc1ccc(Cl)cc1Cl here?
A: Its value is inactive: -8.36%.

Q: Which Potency does the source give for c1ccc2c(C[n+]3csc4ccccc43)cccc2c1 here?
A: The Potency was inconclusive [cytotoxic, single point].

Q: With N#C/C(=N\Nc1ccc(Cl)cc1)C(=O)c1ccsc1 as the compound, how does the Potency read?
A: The Potency was inconclusive [cytotoxic, partial curve].

Q: Which Potency does the source give for Cc1cc(C)cc(NC(=O)Cn2nnc(C(=O)NCc3ccccc3Cl)c2N)c1 here?
A: Its Potency is inconclusive [cytotoxic, single point].

Q: Which Potency does the source give for COc1ccc(/C=C/C(=O)c2ccc(NC3=NCCCS3)cc2)cc1OC here?
A: The Potency was inconclusive [cytotoxic, single point].

Q: With Cc1onc(-c2ccccc2)c1C(=O)N(C)CCc1ccccn1 as the compound, how does the Potency read?
A: Its Potency is inconclusive [rising, partial curve].

Q: Which Potency does the source give for COc1cccc2nc3c(C(=O)NCCN(C)C)cccc3cc12 here?
A: Its Potency is active: 9.2 µM.

Q: Which Potency does the source give for COc1ccccc1CNc1nc(Nc2ccccc2-n2cccn2)c2sccc2n1 here?
A: The Potency was inconclusive [cytotoxic, single point].

Q: For CC/C(=N\Nc1ccnc2cc(Cl)ccc12)c1ccc(O)cc1, which Potency is on record?
A: Its Potency is active: 16.4 µM.

Q: With Cc1cccc(NC(=S)NCC(c2cccnc2)N(C)C)c1C (stereo unspecified) as the compound, how does the activity, negative = toxicity read?
A: Its activity, negative = toxicity is inconclusive: 31.1%.

Q: Which “activity, negative = toxicity” value does the source give for CC1C(=O)N(Cc2cn(CCC3OCCCO3)nn2)CCS(=O)(=O)N1Cc1ccc(-c2ccncc2)cc1 (stereo unspecified) here?
A: Its value is inactive: -3.43%.

Q: For CCOc1ccc(N(Cc2cc3cc(OC)ccc3[nH]c2=O)C(=O)C2CCCO2)cc1 (stereo unspecified), which “activity, negative = toxicity” value is on record?
A: The value was inactive: 5.07%.

Q: Which Potency does the source give for COc1ccc(/C=C/c2cc(C(=O)O)c3ccccc3n2)cc1 here?
A: The Potency was inconclusive [cytotoxic, partial curve].

Q: For CN1CCC[C@@H]1CCO[C@](C)(c1ccccc1)c1ccc(Cl)cc1, which Potency is on record?
A: Its Potency is inconclusive [cytotoxic, single point].

Q: Which Potency does the source give for CCO[C@@H]1OC(C(=O)NCc2nc3ccccc3[nH]2)=C[C@H](c2csc3ccccc23)[C@H]1CCCO here?
A: Its Potency is inconclusive [cytotoxic, partial curve].

Q: Which Potency does the source give for COc1ccc(NC(=O)c2oc3ccccc3c2NC(=O)C(C)(C)C)cc1 here?
A: Its Potency is inconclusive [cytotoxic, single point].

Q: For CCc1cccc(NC(=O)c2cc(OC)c(OC)c(OC)c2)c1, which activity, negative = toxicity is on record?
A: Its activity, negative = toxicity is inconclusive: -26.4% [cytotoxic].

Q: For COc1ccc(-c2nc(N3CCN(C)CC3)sc2-c2ccc(OC)cc2)cc1, which Potency is on record?
A: The Potency was inconclusive [cytotoxic, single point].

Q: With C/C(CC1CC(COCCC(C)C)OC1=O)=N\NC(N)=S (stereo unspecified) as the compound, how does the Potency read?
A: The Potency was inconclusive [cytotoxic, single point].

Q: Which Potency does the source give for CCOc1ccccc1C(=O)Nc1cc(Cl)ccc1O here?
A: Its Potency is inconclusive [cytotoxic, single point].

Q: For O=C(c1cccs1)N1CCN(C(=O)c2cccs2)C1=S, which Potency is on record?
A: Its Potency is active: 20.6 µM.

Q: With OCC1OC(Oc2c(Br)cc(Br)cc2Br)C(O)C(O)C1O (stereo unspecified) as the compound, how does the “activity, negative = toxicity” value read?
A: The value was inactive: -11.5%.

Q: For O=C(NCC1CCCO1)C1CCN(C2CCN(CCCC3CCCC3)CC2)CC1 (stereo unspecified), which “activity, negative = toxicity” value is on record?
A: Its value is inactive: -28.6%.

Q: For O=C(NC(Cc1c[nH]c2ccccc12)C(=O)N/N=C/c1cccnc1)c1cccs1 (stereo unspecified), which Potency is on record?
A: The Potency was inconclusive [cytotoxic, single point].

Q: For CCOc1cc(CNc2ccc3c(c2)OCCO3)cc(Br)c1OCC(N)=O, which Potency is on record?
A: Its Potency is inconclusive [cytotoxic, single point].

Q: With COc1ccc(COc2cc(-c3cccc(OC)c3)nc3ccc(NC(=O)c4ccc(C)cc4)cc23)cc1 as the compound, how does the Potency read?
A: The Potency was active: 13 µM.

Q: Which Potency does the source give for CCOC(=O)N1CCC2(CC1)C(C#N)=C(N)Oc1c2sc2nc(C)cc(C)c12 here?
A: Its Potency is inconclusive [cytotoxic, single point].

Q: For CCOc1ccc(NC(=O)CSc2nc(=O)n(CCCN3CCOCC3)c3c2CCC3)cc1, which “activity, negative = toxicity” value is on record?
A: Its value is inactive: 2.73%.

Q: For O=C(O)c1nc(N2CCCC2)ncc1Cl, which “activity, negative = toxicity” value is on record?
A: The value was inactive: -2.14%.

Q: Which Potency does the source give for C/C(=N/NC(=O)CN(c1ccccc1)S(=O)(=O)c1ccccc1)c1ccccc1O here?
A: Its Potency is inconclusive [cytotoxic, partial curve].

Q: For COc1ccc(-c2cnc3c(NC=O)cc(-c4ccc(F)cc4)cn23)cc1OC, which Potency is on record?
A: The Potency was inconclusive [cytotoxic, full curve, poor fit].

Q: With CC(C)Sc1cc(N2CCCC2)nc(-c2ccc(F)cc2)n1 as the compound, how does the “activity, negative = toxicity” value read?
A: Its value is inactive: -7.51%.

Q: For C(=C\c1ccccc1)/CN1CCN(C(CCc2ccccc2)c2nnnn2C2CCCCC2)CC1 (stereo unspecified), which Potency is on record?
A: Its Potency is inconclusive [cytotoxic, single point].

Q: For COc1cc(OC)c2c(-c3ccccc3)cc(=O)oc2c1C(CCN1CCN(c2ccccc2)CC1)c1ccc(N(C)C)cc1 (stereo unspecified), which “activity, negative = toxicity” value is on record?
A: The value was inactive: 3.82%.

Q: For COc1ccc(CNC(=O)Cn2nc([N+](=O)[O-])c(Br)c2C)cc1OC, which “activity, negative = toxicity” value is on record?
A: Its value is inactive: 6.6%.

Q: With C[C@H](CO)N1C[C@H](C)[C@@H](CN(C)S(=O)(=O)c2ccc(F)cc2)Oc2ccc(NS(=O)(=O)c3ccc(F)cc3)cc2C1=O as the compound, how does the “activity, negative = toxicity” value read?
A: The value was inactive: 0.434%.

Q: Which “activity, negative = toxicity” value does the source give for C#CCOCCOCCOCCNc1nc(N2CCN(C(=O)[C@H](CCC(=O)O)n3cc([C@@H](N)[C@H](C)CC)nn3)CC2)nc(N2CCN(C(=O)[C@H](CCCCN)n3cc([C@@H](N)CC(N)=O)nn3)CC2)n1 here?
A: Its value is inactive: 9.37%.

Q: With Cc1ccc(NC(=O)c2ccc(OC(=O)COc3ccc(Cl)c(C)c3)cc2)cc1 as the compound, how does the “activity, negative = toxicity” value read?
A: The value was inactive: 2.9%.

Q: For O=C(c1ccoc1)N1CCN(c2cc(-c3ccccc3)nc3cc(-c4ccccc4)nn23)CC1, which Potency is on record?
A: Its Potency is inconclusive [cytotoxic, single point].

Q: With COC(=O)Cc1sc(-c2ccccn2)nc1-c1ccccc1 as the compound, how does the “activity, negative = toxicity” value read?
A: Its value is inactive: 0.717%.

Q: Which “activity, negative = toxicity” value does the source give for O=C(NC1CCS(=O)(=O)C1)c1ccccc1Cl (stereo unspecified) here?
A: The value was inactive: 6.33%.

Q: With CCOC(=O)C1CCN(c2c(Nc3cc(C)cc(C)c3)c(=O)c2=O)CC1 as the compound, how does the Potency read?
A: Its Potency is active: 4.61 µM.

Q: Which Potency does the source give for COc1cc2c(cc1NC(=S)Nc1cccc(C(F)(F)F)c1)oc1ccccc12 here?
A: The Potency was inconclusive [cytotoxic, single point].

Q: For CCC(CC)C(=O)Nc1cccc(C(=O)Nc2ccc(S(=O)(=O)Nc3ccc(C)cc3)cc2)c1, which Potency is on record?
A: The Potency was inconclusive [cytotoxic, single point].

Q: Which “activity, negative = toxicity” value does the source give for C=CC[C@@H](CC(=O)N[C@H](CO)Cc1ccccc1)C(=O)N[C@@H](COC(=O)[C@H](CC=C)CC(=O)OC(C)(C)C)Cc1ccccc1 here?
A: Its value is inactive: -11.8%.

Q: Which “activity, negative = toxicity” value does the source give for CCOC(=O)[C@H]1[C@H]2COc3ccc(Br)cc3[C@@H]2N2C(=O)c3ccc(C)cc3NC(=O)[C@@]12C here?
A: The value was inactive: -14.2%.

Q: Which Potency does the source give for COc1ccc(OC)c(-n2nnnc2SCC(=O)Nc2ccc(C(=O)N3CCCCC3)cc2)c1 here?
A: Its Potency is inconclusive [cytotoxic, single point].

Q: With COc1ccc(CCNC(=O)CN(c2cccc([N+](=O)[O-])c2)S(C)(=O)=O)cc1OC as the compound, how does the “activity, negative = toxicity” value read?
A: Its value is inactive: 6.77%.

Q: For O=C(O)c1cc([N+](=O)[O-])ccc1Oc1ccccc1, which activity, negative = toxicity is on record?
A: Its activity, negative = toxicity is inconclusive: 23.7%.

Q: With CN(C)CCN(Cc1ccccc1)C(c1cc2ccccc2o1)c1nnnn1C(C)(C)C (stereo unspecified) as the compound, how does the Potency read?
A: Its Potency is inconclusive [cytotoxic, partial curve].

Q: With CC(=O)NNC(=S)NC(=O)C(c1ccccc1)c1ccccc1 as the compound, how does the Potency read?
A: Its Potency is inconclusive [cytotoxic, partial curve].

Q: With Cc1noc(C)c1COc1ccc(C(=O)NNC(=O)c2ccccc2)cc1 as the compound, how does the Potency read?
A: Its Potency is active: 14.6 µM.

Q: With CCc1ccc(-c2cc(C(=O)Nn3cnnc3)c3ccccc3n2)cc1 as the compound, how does the Potency read?
A: Its Potency is active: 14.1 µM.

Q: For COc1ccc(Nc2nc(NCC3CCCO3)c3ccccc3n2)c(OC)c1 (stereo unspecified), which Potency is on record?
A: The Potency was inconclusive [cytotoxic, single point].

Q: For Cc1ccc2nc(SC(C(=O)Nc3ccc(F)cc3)c3ccccc3)[nH]c2c1 (stereo unspecified), which Potency is on record?
A: The Potency was inconclusive [cytotoxic, partial curve].

Q: With CCCCCn1c(=O)[nH]c2cc(C(=O)NCCN3CCC(C)CC3)ccc2c1=O as the compound, how does the “activity, negative = toxicity” value read?
A: Its value is inactive: 9.85%.

Q: Which “activity, negative = toxicity” value does the source give for COc1ccc(NC(=O)CN(C)S(=O)(=O)c2ccc3c(c2)CCC(=O)N3)c(OC)c1 here?
A: The value was inactive: 7.09%.

Q: For O=C(Nc1nnc(-c2ccc(F)cc2)o1)c1cccc([N+](=O)[O-])c1, which Potency is on record?
A: Its Potency is inconclusive [cytotoxic, partial curve].

Q: Which Potency does the source give for O=C(NC(c1ccccc1)c1cnccn1)C1CCN(Cc2ccc(Cl)c(Cl)c2)CC1 (stereo unspecified) here?
A: The Potency was inconclusive [cytotoxic, single point].
